Among the data in the supplement of paper PMC10369915 are enrichment score values, retold here.

The other results are listed elsewhere or left out. Cut-off read from the data, not from the text of the source: active = 3.2 or more and inactive = the rest. The signal is at background level for most entries.
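Note: displayed peptides selected on beads carrying the immobilized SH2 domain, with library peptides lacking any tyrosine serving as negative controls.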

The first assay addresses SHP2 C-SH2 domain E139D. Nature of the assay: enrichment score (SH2-bound / input frequency) (ratio); bacterial display of known human phosphotyrosine sites (pTyr-Var adds point mutants) read by sequencing; higher = stronger binding; tyrosines were phosphorylated by kinases first. The settings on record: peptide library: pTyr-Var.
As to LAIEWYVVVCK [RHO_Y136_R135W], the enrichment score was inactive: 0.286.

For LEAVSYSSPFA [RNLS_Y190_R193P_YF], the enrichment score was inactive: 0.736.

On to EKAEVYGSENE [RIOK2_Y348], for which the enrichment score was inactive: 0.334.

For the molecule YKEQGYHRLPS [RIN1_Y681_P686S], the enrichment score was inactive: 0.875.

For FLNSIYKCRDE [ROS1_Y2227_S2229C], the enrichment score is inactive: 1.01.

Consider KLLLKYSFHDV [RNF213_Y4141], for which the enrichment score is inactive: 2.3.

With DLDTEYGSGYP [RNASEH2A_Y206_D205E], the enrichment score is inactive: 0.56.

For QDKDLYPCPGT [RLF_Y671_R668K], the enrichment score is inactive: 0.657.

With EKQVAYCPSGK [ROS1_Y2323], the enrichment score was inactive: 0.567.

Consider RNVLVYDKLNV [ROR2_Y624], for which the enrichment score is inactive: 0.834.

As for PAIERYVVVCK [RHO_Y136_L131P], the enrichment score was inactive: 0.684.

Regarding LARDIYKNDFF [ROS1_Y2110_YF], the enrichment score is inactive: 0.891.

As for LTRDIYKNDFF [ROS1_Y2110_A2106T_YF], the enrichment score is inactive: 0.909.

For KRAAIYNPVIF [RHO_Y301_S297R_YF], the enrichment score was inactive: 1.15.

DYGSGYPNDPK [RNASEH2A_Y210]: the enrichment score was inactive: 0.602.

Regarding RNYGTYTAGLS [RHBDD1_Y264_D262G], the enrichment score is inactive: 0.615.

For REVVNYVQKRS [RMI1_Y450_N455S], the enrichment score is inactive: 0.556.

Turning to LTRDIYKNDYY [ROS1_Y2110_A2106T], the enrichment score was inactive: 0.87.

Regarding SHTPSYCDEWL [RITA1_Y109_S113W], the enrichment score is inactive: 0.858.

The target in the next assay is SHP2 C-SH2 domain wild-type. The assay is described as above. Particulars: peptide library: pTyr-Var.
In the case of LAIEWYVVVCK [RHO_Y136_R135W], the enrichment score was inactive: 0.596.

Turning to LEAVSYSSPFA [RNLS_Y190_R193P_YF], the enrichment score was inactive: 1.43.

In the case of EKAEVYGSENE [RIOK2_Y348], the enrichment score was inactive: 0.511.

On to YKEQGYHRLPS [RIN1_Y681_P686S], for which the enrichment score was inactive: 0.777.

FLNSIYKCRDE [ROS1_Y2227_S2229C]: the enrichment score was inactive: 1.17.

For the molecule KLLLKYSFHDV [RNF213_Y4141], the enrichment score was inactive: 2.

On to DLDTEYGSGYP [RNASEH2A_Y206_D205E], for which the enrichment score is inactive: 0.659.

Consider QDKDLYPCPGT [RLF_Y671_R668K], for which the enrichment score was inactive: 0.689.

In the case of EKQVAYCPSGK [ROS1_Y2323], the enrichment score is inactive: 0.629.

As for RNVLVYDKLNV [ROR2_Y624], the enrichment score was inactive: 0.783.

In the case of PAIERYVVVCK [RHO_Y136_L131P], the enrichment score was inactive: 0.932.

LARDIYKNDFF [ROS1_Y2110_YF]: the enrichment score is inactive: 0.776.

Turning to LTRDIYKNDFF [ROS1_Y2110_A2106T_YF], the enrichment score is inactive: 0.728.

Regarding KRAAIYNPVIF [RHO_Y301_S297R_YF], the enrichment score is inactive: 1.15.

In the case of DYGSGYPNDPK [RNASEH2A_Y210], the enrichment score was inactive: 0.591.

Regarding RNYGTYTAGLS [RHBDD1_Y264_D262G], the enrichment score is inactive: 0.547.

In the case of REVVNYVQKRS [RMI1_Y450_N455S], the enrichment score was inactive: 1.01.

In the case of LTRDIYKNDYY [ROS1_Y2110_A2106T], the enrichment score was inactive: 0.926.

As to SHTPSYCDEWL [RITA1_Y109_S113W], the enrichment score was inactive: 0.859.

The next assay concerns the target SHP2 N-SH2 domain L43F. The assay is described as above. The settings on record: peptide library: pTyr-Var.
On to LAIEWYVVVCK [RHO_Y136_R135W], for which the enrichment score is inactive: 0.495.

Consider LEAVSYSSPFA [RNLS_Y190_R193P_YF], for which the enrichment score was inactive: 2.3.

As for EKAEVYGSENE [RIOK2_Y348], the enrichment score is inactive: 0.561.

Turning to YKEQGYHRLPS [RIN1_Y681_P686S], the enrichment score is inactive: 0.81.

FLNSIYKCRDE [ROS1_Y2227_S2229C]: the enrichment score was inactive: 1.15.

KLLLKYSFHDV [RNF213_Y4141]: the enrichment score is inactive: 1.99.

DLDTEYGSGYP [RNASEH2A_Y206_D205E]: the enrichment score is inactive: 0.646.

QDKDLYPCPGT [RLF_Y671_R668K]: the enrichment score is inactive: 0.695.

As to EKQVAYCPSGK [ROS1_Y2323], the enrichment score is inactive: 0.622.

For RNVLVYDKLNV [ROR2_Y624], the enrichment score was inactive: 0.799.

Turning to PAIERYVVVCK [RHO_Y136_L131P], the enrichment score was inactive: 0.673.

Take LARDIYKNDFF [ROS1_Y2110_YF]: the enrichment score is inactive: 1.13.

LTRDIYKNDFF [ROS1_Y2110_A2106T_YF]: the enrichment score was inactive: 0.91.

In the case of KRAAIYNPVIF [RHO_Y301_S297R_YF], the enrichment score is inactive: 1.32.

Turning to DYGSGYPNDPK [RNASEH2A_Y210], the enrichment score was inactive: 0.694.

Take RNYGTYTAGLS [RHBDD1_Y264_D262G]: the enrichment score is inactive: 0.546.

Regarding REVVNYVQKRS [RMI1_Y450_N455S], the enrichment score was inactive: 0.839.

As for LTRDIYKNDYY [ROS1_Y2110_A2106T], the enrichment score is inactive: 1.14.

As to SHTPSYCDEWL [RITA1_Y109_S113W], the enrichment score is inactive: 0.913.

The target of the next assay is SHP2 N-SH2 domain T42A. Described as above. Particulars: peptide library: pTyr-Var.
LAIEWYVVVCK [RHO_Y136_R135W]: the enrichment score is inactive: 0.666.

Regarding LEAVSYSSPFA [RNLS_Y190_R193P_YF], the enrichment score was active: 3.92.

As to EKAEVYGSENE [RIOK2_Y348], the enrichment score is inactive: 0.462.

In the case of YKEQGYHRLPS [RIN1_Y681_P686S], the enrichment score is inactive: 0.584.

With FLNSIYKCRDE [ROS1_Y2227_S2229C], the enrichment score is inactive: 1.02.

On to KLLLKYSFHDV [RNF213_Y4141], for which the enrichment score is inactive: 1.78.

On to DLDTEYGSGYP [RNASEH2A_Y206_D205E], for which the enrichment score is inactive: 0.597.

Regarding QDKDLYPCPGT [RLF_Y671_R668K], the enrichment score is inactive: 0.617.

Turning to EKQVAYCPSGK [ROS1_Y2323], the enrichment score is inactive: 0.502.

Regarding RNVLVYDKLNV [ROR2_Y624], the enrichment score was inactive: 0.7.

As for PAIERYVVVCK [RHO_Y136_L131P], the enrichment score was inactive: 0.745.

Turning to LARDIYKNDFF [ROS1_Y2110_YF], the enrichment score is inactive: 1.15.

Consider LTRDIYKNDFF [ROS1_Y2110_A2106T_YF], for which the enrichment score was inactive: 1.03.

For KRAAIYNPVIF [RHO_Y301_S297R_YF], the enrichment score is inactive: 2.33.

As for DYGSGYPNDPK [RNASEH2A_Y210], the enrichment score was inactive: 0.473.

RNYGTYTAGLS [RHBDD1_Y264_D262G]: the enrichment score is inactive: 0.674.

Consider REVVNYVQKRS [RMI1_Y450_N455S], for which the enrichment score was inactive: 0.627.

On to LTRDIYKNDYY [ROS1_Y2110_A2106T], for which the enrichment score was inactive: 0.979.

Take SHTPSYCDEWL [RITA1_Y109_S113W]: the enrichment score is inactive: 0.868.

Another assay deals with SHP2 N-SH2 domain T52S. Described as above. Particulars: peptide library: pTyr-Var.
With LAIEWYVVVCK [RHO_Y136_R135W], the enrichment score was inactive: 0.532.

In the case of LEAVSYSSPFA [RNLS_Y190_R193P_YF], the enrichment score was inactive: 2.78.

As to EKAEVYGSENE [RIOK2_Y348], the enrichment score is inactive: 0.405.

On to YKEQGYHRLPS [RIN1_Y681_P686S], for which the enrichment score is inactive: 0.757.

Take FLNSIYKCRDE [ROS1_Y2227_S2229C]: the enrichment score was inactive: 1.05.

Take KLLLKYSFHDV [RNF213_Y4141]: the enrichment score was inactive: 2.11.

For the molecule DLDTEYGSGYP [RNASEH2A_Y206_D205E], the enrichment score is inactive: 0.569.

As for QDKDLYPCPGT [RLF_Y671_R668K], the enrichment score was inactive: 0.519.

Consider EKQVAYCPSGK [ROS1_Y2323], for which the enrichment score was inactive: 0.432.

On to RNVLVYDKLNV [ROR2_Y624], for which the enrichment score was inactive: 0.605.

Regarding PAIERYVVVCK [RHO_Y136_L131P], the enrichment score was inactive: 0.843.

LARDIYKNDFF [ROS1_Y2110_YF]: the enrichment score was inactive: 0.716.

LTRDIYKNDFF [ROS1_Y2110_A2106T_YF]: the enrichment score is inactive: 0.735.

Consider KRAAIYNPVIF [RHO_Y301_S297R_YF], for which the enrichment score is inactive: 1.13.

As for DYGSGYPNDPK [RNASEH2A_Y210], the enrichment score is inactive: 0.841.

RNYGTYTAGLS [RHBDD1_Y264_D262G]: the enrichment score is inactive: 0.647.

Regarding REVVNYVQKRS [RMI1_Y450_N455S], the enrichment score is inactive: 0.756.

Turning to LTRDIYKNDYY [ROS1_Y2110_A2106T], the enrichment score was inactive: 1.11.

Take SHTPSYCDEWL [RITA1_Y109_S113W]: the enrichment score is inactive: 0.711.

The target in the next assay is SHP2 N-SH2 domain wild-type. The assay is described as above. The settings on record: peptide library: pTyr-Var.
For LAIEWYVVVCK [RHO_Y136_R135W], the enrichment score is inactive: 1.04.

For the molecule LEAVSYSSPFA [RNLS_Y190_R193P_YF], the enrichment score is inactive: 0.726.

As to EKAEVYGSENE [RIOK2_Y348], the enrichment score is inactive: 0.348.

Regarding YKEQGYHRLPS [RIN1_Y681_P686S], the enrichment score was inactive: 0.741.

Regarding FLNSIYKCRDE [ROS1_Y2227_S2229C], the enrichment score is inactive: 1.13.

Consider KLLLKYSFHDV [RNF213_Y4141], for which the enrichment score is inactive: 2.29.

On to DLDTEYGSGYP [RNASEH2A_Y206_D205E], for which the enrichment score was inactive: 0.672.

On to QDKDLYPCPGT [RLF_Y671_R668K], for which the enrichment score was inactive: 1.07.

On to EKQVAYCPSGK [ROS1_Y2323], for which the enrichment score is inactive: 0.649.

With RNVLVYDKLNV [ROR2_Y624], the enrichment score is inactive: 0.723.

Turning to PAIERYVVVCK [RHO_Y136_L131P], the enrichment score was inactive: 1.21.

In the case of LARDIYKNDFF [ROS1_Y2110_YF], the enrichment score was inactive: 0.877.

With LTRDIYKNDFF [ROS1_Y2110_A2106T_YF], the enrichment score is inactive: 0.935.

Turning to KRAAIYNPVIF [RHO_Y301_S297R_YF], the enrichment score was inactive: 1.01.

Take DYGSGYPNDPK [RNASEH2A_Y210]: the enrichment score is inactive: 0.73.

On to RNYGTYTAGLS [RHBDD1_Y264_D262G], for which the enrichment score is inactive: 0.87.

For the molecule REVVNYVQKRS [RMI1_Y450_N455S], the enrichment score was inactive: 1.12.

For LTRDIYKNDYY [ROS1_Y2110_A2106T], the enrichment score was inactive: 1.12.

As to SHTPSYCDEWL [RITA1_Y109_S113W], the enrichment score was inactive: 1.01.
